Measured values published in article PMC5892938.
The list shows a part of the results. At the low end of the ranking, values are background and their order means little.

What follows are sequences tested against GST-SBP-SLBP (stem-loop binding protein) (UniProt Q14493) (assay: targeted RNA Bind-n-Seq). Details: RBNS binding buffer: 25 mM Tris pH 7.5, 150 mM KCl, 3 mM MgCl2, 0.1% Tween, 0.5 mg/mL BSA, 1 mM DTT; 27 nM protein, 750 pM RNA pool; temperature not stated; high values mean tight binding.
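Note: DESeq read counts versus GST-SBP nonspecific binding control pulldown.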

Sequence | binding signal (log2 fold change)
GGUCACGUCUCAAUCAACUCAAUCGCAGGAGUUUACUCCUGGUUAUUCAACAGCUCGCAGUCAAG | -0.0429
GGUCACGUCUCAAUCAACUCAAUUCCAGGAGUUUUCUCCUGCUAACUCAACAGCUCGCAGUCAAG | 0.0655
GGUCACGUCUCAAUCAACUCUACUCCAGGAGUUUUCUCCUGUAUUCUCAACAGCUCGCAGUCAAG | -0.232
GGUCACGUCUCAAUCAACUCUACUUCCAGGGAAAACCCUGGCAUACUCAACAGCUCGCAGUCAAG | 0.104
GGUCACGUCUCAAUCAACUCAAUCUCCAGGGAAAGCCCUGGUUAACUCAACAGCUCGCAGUCAAG | 0.178
GGUCACGUCUCAAUCAACUCAUUCUCCAGGGAAAACCCUGGUUUACUCAACAGCUCGCAGUCAAG | -0.0116
GGUCACGUCUCAAUCAACUCUUCGUCCAGGGAAAGCCCUGGUUAAUUCAACAGCUCGCAGUCAAG | -0.228
GGUCACGUCUCAAUCAACUCAUUCGAGGGGGGGAAAACCCCUUUACCCUCACUUUCAACAGCUCGCAGUCAAG | -0.036
GGUCACGUCUCAAUCAACUCUACUUCAGGAGUUUCCUCCUGCAUAUUCAACAGCUCGCAGUCAAG | 0.166
GGUCACGUCUCAAUCAACUCAGUCCCAGGAGUUUUCUCCUGCUAUUUCAACAGCUCGCAGUCAAG | -0.147
GGUCACGUCUCAAUCAACUCUAUUCCCAGGGAAAUCCCUGGUAUAUUCAACAGCUCGCAGUCAAG | 0.0695
GGUCACGUCUCAAUCAACUCAGAAGAGGGGGGGAAAACCCCUUUACCCUCCAUAUCAACAGCUCGCAGUCAAG | 0.0423
GGUCACGUCUCAAUCAACUCAUUCCCAGGAGUUUACUCCUGUAGUCUCAACAGCUCGCAGUCAAG | 0.0578
GGUCACGUCUCAAUCAACUCUUCUUCCAGGGAAAUCCCUGGCAUUCUCAACAGCUCGCAGUCAAG | 0.266
GGUCACGUCUCAAUCAACUCAUGUCCAGGAGUUUCCUCCUGCAAAUUCAACAGCUCGCAGUCAAG | 0.148
GGUCACGUCUCAAUCAACUCUAUCCCCAGGGAAAGCCCUGGUAAUUUCAACAGCUCGCAGUCAAG | -0.269
GGUCACGUCUCAAUCAACUCUAUGUCCAGGGAAAUCCCUGGUUUUUUCAACAGCUCGCAGUCAAG | -0.118
GGUCACGUCUCAAUCAACUCUUCCUCCAGGGAAACCCCUGGCAUUCUCAACAGCUCGCAGUCAAG | -0.0647
GGUCACGUCUCAAUCAACUCCAAAGAGGGGGGGAAAACCCCUUUACCCUCCAUUUCAACAGCUCGCAGUCAAG | -0.218
GGUCACGUCUCAAUCAACUCAAUCUCCAGGGAAACCCCUGGUAAUCUCAACAGCUCGCAGUCAAG | -0.234
GGUCACGUCUCAAUCAACUCUUCCCCCAGGGAAAACCCUGGUAAUUUCAACAGCUCGCAGUCAAG | 0.239
GGUCACGUCUCAAUCAACUCAAUCGAGGGGGGGAAAACCCCUUUACCCUCAUCAUCAACAGCUCGCAGUCAAG | -0.0571
GGUCACGUCUCAAUCAACUCAAUCCCAGGAGUUUUCUCCUGCAAAGUCAACAGCUCGCAGUCAAG | 0.0314
GGUCACGUCUCAAUCAACUCAUCCCCCAGGGAAAGCCCUGGUAAACUCAACAGCUCGCAGUCAAG | 0.0629
GGUCACGUCUCAAUCAACUCAUCUUCCAGGGAAAACCCUGGUAAACUCAACAGCUCGCAGUCAAG | 0.272

Sequence | binding signal (log2 fold change)
GGUCACGUCUCAAUCAACUCAACUUCCAGGGAAAGCCCUGGUAUAUUCAACAGCUCGCAGUCAAG | -0.328
GGUCACGUCUCAAUCAACUCAUUCUCAGGAGUUUCCUCCUGUUUAGUCAACAGCUCGCAGUCAAG | 0.208
GGUCACGUCUCAAUCAACUCUUUAGAGGGGGGGAAAACCCCUUUGCCCUCACUUUCAACAGCUCGCAGUCAAG | 0.0444
GGUCACGUCUCAAUCAACUCAUUCUCAGGAGUUUACUCCUGCAAAGUCAACAGCUCGCAGUCAAG | 0.0362
GGUCACGUCUCAAUCAACUCAACUUCCAGGGAAAUCCCUGGCAUUCUCAACAGCUCGCAGUCAAG | 0.0857
GGUCACGUCUCAAUCAACUCAUUCUCAGGAGUUUCCUCCUGCUAACUCAACAGCUCGCAGUCAAG | 0.0533
GGUCACGUCUCAAUCAACUCUUUUUCCAGGGAAACCCCUGGCAAUGUCAACAGCUCGCAGUCAAG | -0.315
GGUCACGUCUCAAUCAACUCAUCUCCAGGAGUUUACUCCUGUAUUCUCAACAGCUCGCAGUCAAG | 0.0462
GGUCACGUCUCAAUCAACUCAUCGUCAGGAGUUUACUCCUGCAUAUUCAACAGCUCGCAGUCAAG | -0.0415
GGUCACGUCUCAAUCAACUCAAUCGCAGGAGUUUUCUCCUGGUAAUUCAACAGCUCGCAGUCAAG | 0.0664
GGUCACGUCUCAAUCAACUCUUUCUCCAGGGAAAACCCUGGCUUAUUCAACAGCUCGCAGUCAAG | 0.0307
GGUCACGUCUCAAUCAACUCAUCUCCAGGAGUUUUCUCCUGCUUAGUCAACAGCUCGCAGUCAAG | 0.0239
GGUCACGUCUCAAUCAACUCUCCAGAGGGGGGGAAAACCCCUUUGCCCUCAAUAUCAACAGCUCGCAGUCAAG | -0.0693
GGUCACGUCUCAAUCAACUCAUCUUCAGGAGUUUUCUCCUGUAUACUCAACAGCUCGCAGUCAAG | 0.0783
GGUCACGUCUCAAUCAACUCAUCUCCCAGGGAAAUCCCUGGUAUAUUCAACAGCUCGCAGUCAAG | 0.0532
GGUCACGUCUCAAUCAACUCUUUUUCCAGGGAAAUCCCUGGCAAUGUCAACAGCUCGCAGUCAAG | 0.132
GGUCACGUCUCAAUCAACUCAUCUCCCAGGGAAAUCCCUGGUAUUUUCAACAGCUCGCAGUCAAG | 0.0548
GGUCACGUCUCAAUCAACUCAUCCCCCAGGGAAAGCCCUGGUUUUCUCAACAGCUCGCAGUCAAG | 0.259
GGUCACGUCUCAAUCAACUCCCAAGAGGGGGGGAAAACCCCUUUACCCUCACAAUCAACAGCUCGCAGUCAAG | -0.072
GGUCACGUCUCAAUCAACUCAACUCCCAGGGAAAGCCCUGGUAAAUUCAACAGCUCGCAGUCAAG | -0.276
GGUCACGUCUCAAUCAACUCUAUGUCAGGAGUUUUCUCCUGCUAAUUCAACAGCUCGCAGUCAAG | -0.151
GGUCACGUCUCAAUCAACUCAAGUCCAGGAGUUUUCUCCUGUUAAUUCAACAGCUCGCAGUCAAG | 0.225
GGUCACGUCUCAAUCAACUCAUCCCCCAGGGAAAGCCCUGGCUAACUCAACAGCUCGCAGUCAAG | -0.0483
GGUCACGUCUCAAUCAACUCAUCCGCAGGAGUUUCCUCCUGGUAAUUCAACAGCUCGCAGUCAAG | 0.119
GGUCACGUCUCAAUCAACUCAAUUUCCAGGGAAAGCCCUGGCGUAUUCAACAGCUCGCAGUCAAG | -0.0156

Sequence | binding signal (log2 fold change)
GGUCACGUCUCAAUCAACUCAUCCUCAGGAGUUUUCUCCUGCUUUUUCAACAGCUCGCAGUCAAG | 0.184
GGUCACGUCUCAAUCAACUCAUCUUCAGGAGUUUCCUCCUGCUAUUUCAACAGCUCGCAGUCAAG | 0.0308
GGUCACGUCUCAAUCAACUCUACUCCCAGGGAAAGCCCUGGCUAUCUCAACAGCUCGCAGUCAAG | 0.0534
GGUCACGUCUCAAUCAACUCAGUCCCAGGAGUUUCCUCCUGCUAAUUCAACAGCUCGCAGUCAAG | -0.075
GGUCACGUCUCAAUCAACUCUUCAGAGGGGGGGAAAACCCCUUUACCCUCCAUGUCAACAGCUCGCAGUCAAG | -0.0562
GGUCACGUCUCAAUCAACUCUACUUCAGGAGUUUCCUCCUGUUAUCUCAACAGCUCGCAGUCAAG | -0.169
GGUCACGUCUCAAUCAACUCAACUCCAGGAGUUUUCUCCUGCAUUCUCAACAGCUCGCAGUCAAG | -0.055
GGUCACGUCUCAAUCAACUCUCUCGAGGGGGGGAAAACCCCUUUACCCUCACACUCAACAGCUCGCAGUCAAG | -0.086
GGUCACGUCUCAAUCAACUCAUCUUCAGGAGUUUUCUCCUGUUAUCUCAACAGCUCGCAGUCAAG | 0.171
GGUCACGUCUCAAUCAACUCCUUAGAGGGGGGGAAAACCCCUUUGCCCUCAUAAUCAACAGCUCGCAGUCAAG | -0.111
GGUCACGUCUCAAUCAACUCAUCUCCAGGAGUUUUCUCCUGUUAAUUCAACAGCUCGCAGUCAAG | 0.0642
GGUCACGUCUCAAUCAACUCUCAAGAGGGGGGGAAAACCCCUUUACCCUCGCCAUCAACAGCUCGCAGUCAAG | -0.025
GGUCACGUCUCAAUCAACUCAUCCUCAGGAGUUUCCUCCUGCUUAGUCAACAGCUCGCAGUCAAG | 0.23
GGUCACGUCUCAAUCAACUCUCUCGAGGGGGGGAAAACCCCUUUACCCUCAUACUCAACAGCUCGCAGUCAAG | 0.145
GGUCACGUCUCAAUCAACUCAUAAGAGGGGGGGAAAACCCCUUUGCCCUCGAAAUCAACAGCUCGCAGUCAAG | 0.269
GGUCACGUCUCAAUCAACUCUUUCUCCAGGGAAAGCCCUGGUAUACUCAACAGCUCGCAGUCAAG | 0.171
GGUCACGUCUCAAUCAACUCUACUCCCAGGGAAAUCCCUGGCAAACUCAACAGCUCGCAGUCAAG | -0.00265
GGUCACGUCUCAAUCAACUCACAAGAGGGGGGGAAAACCCCUUUACCCUCCACAUCAACAGCUCGCAGUCAAG | -0.45
GGUCACGUCUCAAUCAACUCAUACGAGGGGGGGAAAACCCCUUUGCCCUCACAUUCAACAGCUCGCAGUCAAG | -0.0683
GGUCACGUCUCAAUCAACUCUUCCCCAGGAGUUUCCUCCUGCUUAUUCAACAGCUCGCAGUCAAG | 0.115
GGUCACGUCUCAAUCAACUCAUUAGAGGGGGGGAAAACCCCUUUACCCUCCGCAUCAACAGCUCGCAGUCAAG | -0.0861
GGUCACGUCUCAAUCAACUCACUAGAGGGGGGGAAAACCCCUUUGCCCUCAUCUUCAACAGCUCGCAGUCAAG | -0.84
GGUCACGUCUCAAUCAACUCUUUCGAGGGGGGGAAAACCCCUUUACCCUCAUUCUCAACAGCUCGCAGUCAAG | -0.273
GGUCACGUCUCAAUCAACUCCUCCGAGGGGGGGAAAACCCCUUUACCCUCACUAUCAACAGCUCGCAGUCAAG | -0.417
